Structures can show the parent of a compound that is named as a salt. ± gives the standard deviation of the averaged measurements. The full ranking holds about 1,300 compounds; the median of “normalised cell viability” is about 1, and the lowest 2% start at about 0.15. The list shows a part of the results.

The test system of the assay is V-C8 + BRCA2 (BRCA2-proficient hamster cells). The assay is described as follows: normalised cell viability (fraction of plate median); higher = more viable cells (less toxic). The note with it: 5 µM. In a few lines:
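In two screens, library drugs at 5 μM were given for 3 days (screen 1) or 6 days (screen 2) to hamster V-C8 cells without BRCA2 and V-C8 cells with BRCA2 restored, seeded 24 h earlier in 96-well plates. A resazurin assay gave the cell viability readout, expressed as modified robust per cent of sample against the plate median, with triplicate wells averaged.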

Regarding `C[C@H]1O[C@@H](O[C@H]2[C@@H](O)C[C@H](O[C@H]3[C@@H](O)C[C@H](O[C@H]4CC[C@@]5(C)[C@H](CC[C@@H]6[C@@H]5C[C@@H](O)[C@]5(C)[C@@H](C7=CC(=O)OC7)CC[C@]65O)C4)O[C@@H]3C)O[C@@H]2C)C[C@H](O)[C@@H]1O` [Digoxin], the normalised cell viability turned out to be 1.06 ± 0.036 (treatment time: 3 days) and 1.07 ± 0.13 (treatment time: 6 days).

Consider `COc1cc([S+](C)[O-])ccc1-c1nc2cccnc2[nH]1` (configuration not stated) [Sulmazole], for which the normalised cell viability by setting is: (treatment time: 3 days) 1.2 ± 0.33; (treatment time: 6 days) 1.1 ± 0.045.

In the case of `O=C(OCC(O)CO)c1ccccc1Nc1ccnc2cc(Cl)ccc12` (configuration not stated) [Glafenine hydrochloride], the normalised cell viability (treatment time: 3 days) was 0.98 ± 0.07 and the normalised cell viability (treatment time: 6 days) was 1.04 ± 0.051.

With `CC(C(=O)O)c1ccc(-c2ccccc2)c(F)c1` (configuration not stated) [Flurbiprofen], the normalised cell viability runs as follows: (treatment time: 3 days) 0.994 ± 0.027; (treatment time: 6 days) 1.07 ± 0.038.

Consider `CN(C)C(=O)C(CCN1CCC(O)(c2ccc(Cl)cc2)CC1)(c1ccccc1)c1ccccc1` [Loperamide hydrochloride], for which the normalised cell viability is 0.687 ± 0.041 (treatment time: 3 days) and 0.67 ± 0.057 (treatment time: 6 days).

Regarding `CC(C(=O)O)c1ccc2c(c1)[nH]c1ccc(Cl)cc12` (configuration not stated) [Carprofen], the normalised cell viability reads like this: (treatment time: 3 days) 1.04 ± 0.11; (treatment time: 6 days) 1.04 ± 0.13.

On to `CCCCc1cc2ccccc2c(OCCN(C)C)n1` [Dimethisoquin hydrochloride], for which the normalised cell viability (treatment time: 3 days) came to 1.04 ± 0.022 and the normalised cell viability (treatment time: 6 days) was found to be 1.07 ± 0.1.

For the molecule `Cc1cccc(C)c1NC(=O)C(C)N` (configuration not stated) [Tocainide hydrochloride], the normalised cell viability worked out at 1.06 ± 0.027 (treatment time: 3 days) and 0.996 ± 0.018 (treatment time: 6 days).

Turning to `Cc1c(-c2ccccc2)oc2c(C(=O)OCCN3CCCCC3)cccc2c1=O` [Flavoxate hydrochloride], the normalised cell viability is, setting by setting: (treatment time: 3 days) 0.969 ± 0.011; (treatment time: 6 days) 0.98 ± 0.014.

Turning to `CN[C@@H]1[C@@H](O[C@H]2O[C@H](CO)[C@@H](N)[C@H](O)[C@H]2O)OC2C[C@@H](N)[C@@H](O[C@H]3[C@H](O)[C@@H](O)[C@H](N)C[C@@H]3N)OC2[C@@H]1O` (some centres not stated) [Apramycin], the normalised cell viability turned out to be 1.03 ± 0.019 (treatment time: 3 days) and 1.11 ± 0.049 (treatment time: 6 days).

Regarding `N[C@@H](C(=O)N[C@@H]1C(=O)N2C(C(=O)O)=C(Cl)CC[C@H]12)c1ccccc1` [Loracarbef], the normalised cell viability (treatment time: 3 days) came out at 0.999 ± 0.14 and the normalised cell viability (treatment time: 6 days) worked out at 1.05 ± 0.046.

`Cc1onc(-c2ccccc2Cl)c1C(=O)N[C@@H]1C(=O)N2[C@@H]1SC(C)(C)[C@@H]2C(=O)O` [Cloxacillin sodium salt]: the normalised cell viability is, setting by setting: (treatment time: 3 days) 0.987 ± 0.02; (treatment time: 6 days) 1.05 ± 0.092.

`C#Cc1cccc(Nc2ncnc3cc(OCCOC)c(OCCOC)cc23)c1` [Erlotinib]: the normalised cell viability is 1.05 ± 0.016 (treatment time: 3 days) and 0.915 ± 0.037 (treatment time: 6 days).

`N#Cc1ccc(C2CCCc3cncn32)cc1` (configuration not stated) [Fadrozole hydrochloride]: the normalised cell viability runs as follows: (treatment time: 3 days) 0.955 ± 0.11; (treatment time: 6 days) 0.949 ± 0.078.

In the case of `NS(=O)(=O)c1cc2c(cc1Cl)NC(C(Cl)Cl)NS2(=O)=O` (configuration not stated) [Trichlormethiazide], the normalised cell viability reads like this: (treatment time: 3 days) 0.985 ± 0.016; (treatment time: 6 days) 1.05 ± 0.043.

Regarding `CN[C@@H]1[C@H](O)[C@H](NC)[C@H]2O[C@@]3(O)C(=O)C[C@@H](C)O[C@H]3O[C@@H]2[C@H]1O` [Spectinomycin dihydrochloride], the normalised cell viability runs as follows: (treatment time: 3 days) 1.06 ± 0.088; (treatment time: 6 days) 0.962 ± 0.049.

Values taken from the supplement of paper PMC6609913.
